# In all, about 390,000 compounds went through this assay and about 4,700 (1.2%) were called active. About 4% were inconclusive and are not listed. Calls come from the whole dose curve; as a rule, active = well fitted inhibition curve with a large enough effect; inconclusive = small, poorly fitted or top-dose-only effect, or another doubt; inactive = no such curve, though single readings can be large or run the other way. This is a selection; strong and weak results do not stand in their true shares. The source holds several records for some structures; these can differ, active in one and inactive in another. Where a SMILES comes first, the peptide text is derived from it. [ ]: non-standard residue; d: D form. The star is where a group is joined. ξ: configuration not given here. ξF = NC(Cc1ccccc1)C(=O)O; Cbz = O=C(OCc1ccccc1)*
# Target: DNA polymerase eta (Homo sapiens) (UniProt Q9Y253)
# Assay: qHTS for Inhibitors of Polymerase Eta
# Settings: recombinant Pol eta, fluorescent DNA replication assay; series mostly up to 114 µM; activity change, negative = inhibition: at the top concentration
# Excerpt: The Y-family of DNA polymerases, such as Pol eta, are specifically involved in DNA repair. Pol eta copies undamaged DNA with a lower fidelity than other DNA-directed polymerases. However, it accurately replicates UV-damaged DNA; when thymine dimers are present, this polymerase inserts the complementary nucleotides in the newly synthesized DNA, thereby bypassing the lesion and suppressing the mutagenic effect of UV-induced DNA damage. […] Thus, while pol eta's (and most likely iota's) normal function is to protect humans against the deleterious consequences of DNA damage, under certain conditions they can have deleterious effects on human health. As a consequence, we propose to utilize a high throughput replication assay to identify small molecule inhibitors of pol eta. In a collaboration between the National Institute of Child Health & Human Development (NICHD) and NIH Chemical Genomics Center, a high-throughput, fluorescent screen was developed to screen the NIH Molecular Libraries Small Molecule Repository (MLSMR). This screen is used to identify inhibitors of pol eta. NIH Chemical Genomics Center [NCGC] NIH Molecular Libraries Probe Centers Network [MLPCN] MLPCN Grant: MH090825 Assay Submitter (PI): Roger Woodgate, NICHD)
# Three microliters of reagents (buffer in column 3 and 4 as negative control and 10 nM Pol eta in columns 1, 2, and 5-48) were dispensed into a 1,536-well black solid-bottomed plate. Compounds (23 nL) were transferred via Kalypsys pin tool equipped with 1536-pin array. The plates were then incubated for 15 min at room temperature, and 1 µL substrate (50 nM final concentration) was added to start the reaction and kinetically read twice at 0 min and 10 min on the Viewlux reader
# % is set by controls: 0 for no effect and ±100 for the full control effect; potency is the fitted concentration of half-maximal effect.
# UniProt Q9Y253, sequence (Q9Y253 whole entry, looked up): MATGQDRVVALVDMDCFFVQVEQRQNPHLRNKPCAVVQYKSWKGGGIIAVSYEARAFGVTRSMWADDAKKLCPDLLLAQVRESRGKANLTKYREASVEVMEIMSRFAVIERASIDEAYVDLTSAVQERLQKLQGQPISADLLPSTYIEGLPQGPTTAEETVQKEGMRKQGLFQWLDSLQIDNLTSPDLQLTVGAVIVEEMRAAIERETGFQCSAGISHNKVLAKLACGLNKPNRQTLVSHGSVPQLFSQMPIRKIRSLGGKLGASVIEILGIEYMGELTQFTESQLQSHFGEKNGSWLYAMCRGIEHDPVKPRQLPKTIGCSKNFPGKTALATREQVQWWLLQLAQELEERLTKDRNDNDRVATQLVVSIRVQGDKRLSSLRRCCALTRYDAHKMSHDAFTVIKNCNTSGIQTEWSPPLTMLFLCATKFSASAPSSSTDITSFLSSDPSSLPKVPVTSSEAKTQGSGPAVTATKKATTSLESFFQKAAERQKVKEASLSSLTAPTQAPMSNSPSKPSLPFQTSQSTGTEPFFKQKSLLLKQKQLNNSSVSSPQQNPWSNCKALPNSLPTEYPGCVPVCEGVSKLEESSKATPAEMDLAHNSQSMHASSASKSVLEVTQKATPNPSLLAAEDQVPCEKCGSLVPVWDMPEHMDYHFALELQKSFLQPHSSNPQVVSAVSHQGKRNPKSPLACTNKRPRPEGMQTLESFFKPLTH
Compound,"activity change, negative = inhibition",Potency
COc1ccc(C)cc1NC(=O)c1oc2ccc(S(=O)(=O)N3CCC4(CC3)OCCO4)cc2c1C,inactive: 17.9%,–
Cc1nc2sc(C(c3ccc(Cl)cc3)N3CCN(C(=O)c4ccco4)CC3)c(O)n2n1 (centres undefined),inactive: -8.34%,–
CCc1nnc(NC(=O)CSc2nnc(CNc3ccc(C)cc3)n2C)s1,inactive: 16.5%,–
CC(=O)Oc1ccc(-c2cc3ccc(OC(C)=O)cc3oc2=O)cc1,inactive: 31.2%,–
Cc1cc(Cl)c(O)c(-n2nc3ccccc3n2)c1,inactive: 25.6%,–
O=C(Cn1cnc2ccccc2c1=O)NCCC(=O)Nc1ccc(F)cc1,inactive: 3.73%,–
COc1ccccc1NCCC(=O)O,inactive: 31.3%,–
O=C(CCCN1C(=O)S/C(=C/C=C/c2ccccc2)C1=O)Nc1ccc(C(=O)O)cc1,–,active: 89.1 µM
COc1ccc(CNC(=O)CN(C)S(=O)(=O)c2ccc(Cl)cc2)cc1,inactive: 16.1%,–
CC(C)[C@H](NC(=O)OCc1ccccc1)C(=O)NC(C=O)Cc1ccccc1 (stereo partly drawn) (Cbz-Val-[ξF]-aldehyde),inactive: -13.3%,–
CC(C)NC[C@H](O)c1ccc(O)c(O)c1,–,inactive
C[C@@H](C(=O)Nc1ccc2ccccc2c1)[C@@H]1C[C@@]1(C)[C@@H](NC(=O)c1cnccn1)c1ccccc1,inactive: -13.3%,–
C=C(C)C(=O)Nc1cccc(C2=NOC3(C2)C[C@@H](C(N)=O)N(C(=O)c2ccc(Cl)cc2)C3)c1 (some centres undefined),–,active: 4.47 µM
CC(=O)c1ccc(-n2c(CCC(=O)O)ccc2-c2cccs2)cc1,inactive: -14.6%,–
CCOc1ccc(CNC(=O)Cn2nc(C)c3c(C)n(-c4ccc(C)cc4)nc3c2=O)cc1,inactive: -23.7%,–
O=C(C=C(O)c1ccc(Cl)cc1)C(=O)NNC(=O)C(O)(c1ccccc1)c1ccccc1,inactive: -24.6%,–
CC(C)(O)[C@H](O)COc1c2ccoc2cc2oc(=O)ccc12,inactive: 2.38%,–
COc1ccccc1CCNc1ncnc2c1nnn2C,inactive: 15.7%,–
Cc1nnc(SCC2=C(C(=O)O)N3C(=O)C(NC(=O)Cn4ncc(Cl)c4C)C3SC2)s1 (centres undefined),–,active: 17.8 µM
COc1cc(C(=O)N/N=C/c2ccc3c(c2)c2ccccc2n3C)ccc1O,–,active: 15.8 µM
CCN1CC2([N+](=O)[O-])C=CC(=O)C([N+](=O)[O-])(C1)C2CC(=O)c1ccccc1 (centres undefined),–,active: 25.1 µM
OCC[C@H]1C[C@H](O)[C@@H](O)[C@@]2(CCCc3ccccc3O2)O1,inactive: -22.3%,–
Nc1cc(N)nc(SCC(=O)N2CCN(S(=O)(=O)c3ccccc3)CC2)n1,inactive: 30.9%,–
O=Cc1[nH]c2ccccc2c1N(C(=O)CCl)c1ccccc1,–,active: 20 µM

Compound,"activity change, negative = inhibition",Potency
COc1ccc(CN(C)CC(=O)Nc2ccc(Cl)cc2F)c(OC)c1,inactive: 31.5%,–
CCOC(=O)[C@@H]1[C@H]2COc3ccccc3[C@@H]2N2C(=O)N(c3ccc(C(F)(F)F)cc3)C(=O)[C@@]12C,inactive: -20.6%,–
OCCOCCN1CCN(C(c2ccccc2)c2ccc(Cl)cc2)CC1 (centres undefined),inactive: -4.67%,–
[O-]c1c[n+](-c2ccc(-[n+]3cc([O-])on3)cc2)no1,–,active: 44.7 µM
CC1(OC(=O)c2cccs2)C(=O)C=C2C=C3CCCN3C=C2C1=O (centres undefined),–,active: 22.4 µM
O=C(NCCn1cc(SCc2ccc(F)cc2)c2ccccc21)c1c(F)cccc1F,inactive: -22.9%,–
COc1ccccc1C(=O)Nc1c(C(=O)N(CCN(C)C)Cc2ccco2)oc2ccccc12,inactive: -12.5%,–
Cc1ccc2[nH]c3c(=O)n(CC(=O)NCc4ccco4)ncc3c2c1,inactive: -9.85%,–
CCOc1ccc(C(=O)Nc2cccc(-c3ccc4nncn4n3)c2)cc1,inactive: 33.2%,–
CCOC(=O)c1c(C)[nH]c(C(=O)COC(=O)C(C)N2C(=O)C3CCCCC3C2=O)c1C (centres undefined),inactive: -7.1%,–
O=C(Cc1ccc([N+](=O)[O-])cc1)N/N=C/c1cccnc1,inactive: 21.9%,–
O=C(Cc1ccc(Br)cc1)N/N=C/c1ccc(-c2cccc(C(=O)O)c2)o1,–,active: 22.4 µM
CCOc1cc(CNS(=O)(=O)c2ccc3c(c2)CC(=O)N3C)cc(OCC)c1OCC,inactive: -3.27%,–
CN(C)S(=O)(=O)Nc1cccc(Br)c1,inactive: 30.3%,–
Cc1ccccc1NC(=O)c1ccc2c(O)c(S(=O)(=O)c3ccccc3)c(=O)[nH]c2c1,inactive: -10.2%,–
Cc1ccc(C(=O)OCC(=O)NCc2ccco2)s1,–,active: 22.4 µM
O=C1NC(=S)N/C1=C\c1cccc([N+](=O)[O-])c1,inactive: -1.7%,–
COC(=O)c1cc2c(cc1NC(=O)c1cnn(-c3ccc(C)cc3)c1-n1cccc1)OCO2,inactive: 23.7%,–
C=CCc1ccc(OCc2ccc(C(=O)O)o2)c(OC)c1,–,active: 28.2 µM
COC1=CC(=Cc2c(N)n3nc(CC(=O)N4CCOCC4)sc3nc2=O)C=C(OC)C1=O,–,active: 20 µM
CC(/C=C\c1cccnc1)=C/C(=O)O,inactive: -15.9%,–
CON=C(C(=O)NC1C(=O)N2C(C(=O)O)=C(CSc3nc(=O)c(=O)[nH]n3C)CSC12)c1csc(N)n1 (centres undefined),–,active: 31.6 µM
CCC1C/C(=C\c2cccnc2)C(=O)/C(=C/c2cccnc2)C1 (centres undefined),–,active: 11.2 µM
CN1C(C(=O)Nc2ccc(OC(F)(F)F)cc2)=CC(c2cccs2)=NS1(=O)=O,inactive: -15.3%,–

Compound,"activity change, negative = inhibition",Potency
CCNC(=O)COC(=O)c1ccc(S(=O)(=O)N2CCCCCC2)cc1,inactive: -2.48%,–
C/C(N)=C(/C#N)C(=O)CSc1nnnn1-c1ccccc1,–,active: 15.8 µM
NN1C(=O)/C(=C2/Sc3ccccc3N2CCCS(=O)(=O)O)SC1=S,–,active: 50.1 µM
C=CC[C@H](CC(=O)N(CCO)Cc1ccccc1)C(=O)N[C@H](COC(=O)[C@H](CC=C)CC(=O)OC(C)(C)C)Cc1c[nH]c2ccccc12,inactive: -22.3%,–
CCCc1cc(=O)oc2cc(OCC(=O)NC(Cc3c[nH]c4ccc(O)cc34)C(=O)O)c(Cl)cc12 (centres undefined),–,active: 39.8 µM
COc1cccc(CNC(=O)Cn2nc(-c3ccc(Cl)cc3)ccc2=O)c1,inactive: -13.9%,–
CC(C)C[C@H](CO)N(Cc1ccccc1)S(=O)(=O)N(Cc1ccccc1)[C@@H](CO)CC(C)C,inactive: -23.5%,–
CCOC(=O)c1cccc(NC(=O)C2CCCN(S(=O)(=O)c3c(C)n[nH]c3C)C2)c1 (centres undefined),inactive: 2.67%,–
O=C(COC(=O)C1CC2C=CC1C2)NCc1ccco1 (centres undefined),–,active: 8.91 µM
C=CC[C@@H](Cc1ccc(F)cc1)C(=O)OC[C@@H]1CCCN1C(=O)[C@H](CC=C)CC(=O)N[C@H](CO)Cc1ccccc1,inactive: -20%,–
COC(=O)c1c(C)[nH]c(C(=O)COc2ccc3ccc(=O)oc3c2)c1C,–,active: 44.7 µM
Cc1ccc(NC(=O)N/C=C/c2ccco2)cc1C,–,active: 28.2 µM
CCOc1ccc(NS(=O)(=O)c2ccc3[nH]cc(C(=O)NCCOC)c(=O)c3c2)cc1,inactive: 3.57%,–
CCCCCC(=O)N1C[C@@H](n2cc(C3CC3)nn2)[C@H](O)C[C@@H]1c1ccc(Cl)cc1,inactive: -17.3%,–
O=C(COc1ccc2c(-c3ccccc3)cc(=O)oc2c1)NC(Cc1c[nH]c2ccccc12)C(=O)O (centres undefined),inactive: 2.65%,–
C=CCC[C@H](Cc1ccc(F)cc1)C(=O)OC[C@@H](Cc1c[nH]c2ccccc12)NC(=O)[C@@H](CC=C)CC(=O)N(CCO)Cc1ccccc1,inactive: -14.9%,–
CC(=O)c1ccc(NC(=O)c2noc3c2CCC3)cc1,–,active: 44.7 µM
C#CCNC(=O)C1=C[C@@H](c2ccc(C#C)cc2)C[C@@H](OCc2ccc(CO)cc2)O1,inactive: -12.3%,–
Cc1ccc(-c2nc(NC(=O)CSc3cc(C)c4ccccc4n3)ns2)cc1,inactive: -3.16%,–
C=CCSc1nnc(-c2cnn(-c3ccccc3)c2-n2cccc2)n1C,inactive: -7.17%,–
O=C(Nc1ccc2c(c1)OCO2)c1cc2ncc(Br)cn2n1,–,active: 3.55 µM
OCC[C@H]1C[C@@H](O)[C@H](O)[C@]2(CCCc3ccccc3O2)O1,inactive: 1.89%,–
CCn1cc(C(=O)NCCCN(CC(C)C)CC(C)C)c(=O)c2cc(S(=O)(=O)N(C)C3CCCCC3)ccc21,inactive: -16.8%,–
CC1(C)CC(=O)C(C=Nc2ccc(Cl)cn2)=C(O)C1,inactive: 3.72%,–

Compound,"activity change, negative = inhibition",Potency
COc1ccccc1CNC(=O)C1CCCN(c2nn3cc(-c4ccc(F)cc4)nc3s2)C1 (centres undefined),inactive: 19.3%,–
Cc1ccc(C2C(C#N)=C(N)Oc3cc(C)oc(=O)c32)o1 (centres undefined),inactive: 30.8%,–
O=C(O)CC/C(=C\c1cccc(NC(=O)c2ccccc2Cl)c1)c1nc2ccccc2s1,inactive: -9.38%,–
Cc1cccc(N=C2NC(=O)/C(=C/c3cccs3)S2)c1,inactive: -17.8%,–
Cn1cc(CCC(=O)NCc2ccc(Cl)cc2)c2ccccc21,inactive: -20.1%,–
O=[N+]([O-])c1cccc(-c2ccc3nnc(SCc4cccnc4)n3n2)c1,inactive: 33.5%,–
CCc1nnc2c(NCCc3ccc(OC)c(OC)c3)nc3ccccc3n12,inactive: -8.39%,–
CCOc1cccc(CNc2ccc(O)cc2)c1OCc1ccccc1Cl,inactive: -22.1%,–
Cc1cc(-c2n[nH]c(=S)n2/N=C/C=C/c2ccco2)n[nH]1,–,active: 44.7 µM
Cc1cc(N/N=C/c2ccccc2)nc(N)n1,inactive: 34.7%,–
O=C1NC2c3c(Cl)sc(Cl)c3C(=O)C2O1 (centres undefined),–,active: 3.16 µM
N#C/C(=C/c1cccs1)c1nc2ccccc2[nH]1,inactive: -2.14%,–
C=CCC[C@@H](Cc1ccc(F)cc1)C(=O)OC[C@H](Cc1c[nH]c2ccccc12)NC(=O)[C@H](CC=C)CC(=O)N(CCO)Cc1ccccc1,inactive: -8.12%,–
Oc1ccccc1-c1nc(/C=C/c2ccccc2)nn1-c1ccccc1,inactive: -25%,–
O=C(CCNc1cc(Cl)cc(Cl)c1)c1ccco1,inactive: -4.98%,–
CCCCCCN1C[C@@H](n2cc(COC(=O)c3ccccc3)nn2)[C@H](O)C[C@@H]1c1ccc(C)cc1,inactive: -27.4%,–
CCn1cnc2cc(NCc3ccc(N(C)C)cc3)ccc21,inactive: -11.4%,–
COc1ccccc1/C=C/C=N/n1c(C2CCCCC2)n[nH]c1=S,inactive: -6.32%,–
COc1ccc(C(CC(=O)N2CCCCC2)c2c(OC)cc(OC)c3c(-c4ccccc4)cc(=O)oc23)cc1 (centres undefined),–,active: 20 µM
O=C(NCc1ccco1)/C(=C\c1ccco1)NC(=O)c1ccc(Br)o1,inactive: -4.66%,–
CCc1nnc(SCC(=O)N(C)c2ccccc2)c2cc3sccc3n12,inactive: 18.3%,–
CS(=O)(=O)C1=NN2C(=N)/C(=C\c3ccc(OCCOc4ccccc4)cc3)C(=O)N=C2S1,–,active: 44.7 µM
